# Data published in PubChem BioAssay AID2100 (National Center for Advancing Translational Sciences (NCATS), 2009).
# About 1,200 (0.4%) of roughly 300,000 compounds were called active. The shares of active, inactive and inconclusive entries below differ from those in the screen. Calls come from the whole dose curve; as a rule, active = well fitted inhibition curve with a large enough effect; inconclusive = small, poorly fitted or top-dose-only effect, or another doubt; inactive = no such curve, though single readings can be large or run the other way. A potency beside an inconclusive call is a rough fit, not a confirmed value.
# Molecular target: Lysosomal alpha-glucosidase (Homo sapiens) (UniProt P10253)
# Assay: qHTS Assay for Inhibitors and Activators of Human alpha-Glucosidase Cleavage of Glycogen
# Conditions: recombinant GAA, glycogen substrate, Amplex Red glucose oxidase fluorescence; series mostly up to 76.4 µM
# How it was run: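 qHTS, 1536-well; enzyme 4 nM final; cpd up to 77 uM; substrate bovine liver glycogen 30 ug; 50 mM citrate/phosphate pH 5.0, 0.01% Tween-20; 37 C, 40 min; Amplex Red detection 45 min RT; Hill fit → AC50.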
# Potency is the fitted concentration of half-maximal effect.
row,Compound,Potency
1,COc1cc(C(=S)N2CCN(c3ccccc3Cl)CC2)cc(O)c1O,"inconclusive: 14.1 µM [inhibitor, partial curve]"
2,COc1cc(-c2cc(C(=O)O)c3c(OC)c(OC)c(OC)cc3n2)ccc1O,"inconclusive: 14.1 µM [inhibitor, partial curve]"
3,CC1Cc2cc(/C(O)=C3/C(=O)C(=O)N(CCN4CCOCC4)C3c3ccc(N(C)C)cc3)ccc2O1 (centres undefined),"inconclusive: 44.7 µM [inhibitor, single point]"
4,O=C(N/N=C/c1ccc(O)c(O)c1)N/N=C/c1ccc(O)c(O)c1,active: 1.41 µM
5,O=C(NNC(=S)Nc1ccccc1)c1ccc2ncccc2c1,"inconclusive: 14 µM [inhibitor, partial curve]"
6,O=C1Cc2cc(S(=O)(=O)N3CCN(c4ccc(Cl)cc4)CC3)ccc2N1,"inconclusive: 67.1 µM [inhibitor, partial curve]"
7,O=C(NCc1ccc(/C=c2\sc3n(c2=O)CCN=3)o1)C(=O)Nc1ccccc1,inactive
8,Cc1cccc(CS(=O)(=O)Cc2ccc(C(=O)NCc3cccs3)o2)c1,"inconclusive: 3.16 µM [inhibitor, partial curve]"
9,Nc1c(C(=O)Nc2ccccc2)nnn1Cc1ccc(F)cc1Cl,inactive
10,Cc1ccc(N2C(=O)[C@@H]3CSC(c4ccc(F)cc4)N3C2=O)cc1 (some centres undefined),"inconclusive: 11.2 µM [inhibitor, single point]"
11,Cc1c(NC(C)c2ccccc2O)c(=O)n(-c2ccccc2)n1C (centres undefined),active: 28.2 µM
12,CCOC(=O)C1=C(CS(=O)(=O)c2ccc(F)cc2)NC(=O)NC1c1ccc(O)c(O)c1 (centres undefined),"inconclusive: 11.2 µM [inhibitor, single point]"
13,O=C(Nc1nc2c(s1)CN(Cc1ccccc1)CC2)C1CCC1,"inconclusive: 50.1 µM [activator, single point]"
14,NNC(=O)c1cc2cc(OC(F)(F)F)ccc2[nH]1,"inconclusive: 35.5 µM [inhibitor, single point]"
15,Oc1ccc(C=Nc2cccc3ccccc23)c(O)c1,inactive
16,Cc1c(C(=O)NN)nc2ccccn12,"inconclusive: 25.1 µM [inhibitor, single point]"
17,COC(=O)NNC1=CC(=O)CC(C)(C)C1,"inconclusive: 35.5 µM [inhibitor, partial curve]"
18,Cc1ccc(C2C=NN(c3ccccc3)C2=O)cc1 (centres undefined),"inconclusive: 35.5 µM [inhibitor, partial curve]"
19,COc1cccc(CNc2cccc(C(F)(F)F)c2)c1O,"inconclusive: 17.8 µM [inhibitor, partial curve]"
20,O=C(NCN1C(=O)C2C3C=CC(C3)C2C1=O)Nc1ccccc1O (centres undefined),"inconclusive: 12.6 µM [inhibitor, partial curve]"
21,CCOC(=O)C1(Cc2ccccc2C(F)(F)F)CCN(C(C)CSC)CC1 (centres undefined),inactive
22,COc1ccc(NS(=O)(=O)c2cc(NC(=O)c3cc(F)c(F)c(F)c3F)ccc2N2CCCC2)cc1,"inconclusive: 35.5 µM [inhibitor, partial curve]"

row,Compound,Potency
1,CCN(CC)S(=O)(=O)c1ccc(N/N=C/c2ccc(O)cc2)nc1,"inconclusive: 24.9 µM [inhibitor, single point]"
2,CCOC(=O)C1=C(C)Nc2ccccc2S1,"inconclusive: 31.6 µM [inhibitor, single point]"
3,CCOC(=O)c1c(-c2ccccc2)oc2ccc(O)cc12,"inconclusive: 56.2 µM [inhibitor, single point]"
4,Cc1cccc(-n2nnnc2SCC(=O)Nc2cccc(S(N)(=O)=O)c2)c1,inactive
5,C=CCn1c(C)cc(/C([O-])=C(/C(=S)Nc2ccc(OC(F)F)cc2)[n+]2ccc(N(C)C)cc2)c1C,"inconclusive: 28.2 µM [inhibitor, single point]"
6,Cc1ccc(O)c(NC(=O)c2cccc(NC(=O)c3ccco3)c2)c1,active: 12.6 µM
7,COc1cc(CNc2ccc(N3CCCC3)cc2)ccc1OCc1ccccc1,"inconclusive: 35.5 µM [activator, partial curve]"
8,CC/C(=N\NC(=O)COc1ccc(Br)cc1)c1ccc(OC)c(OC)c1,"inconclusive: 50.1 µM [inhibitor, single point]"
9,Cc1ccc(/C=C/c2ccc(N(C)C)cc2)[n+](C)c1,"inconclusive: 39.8 µM [activator, partial curve]"
10,O=c1oc2ccccc2c(Nc2ccc(O)cc2)c1[N+](=O)[O-],active: 3.55 µM
11,CC(C)OCCCn1c(=S)[nH]c2ccc(N3CCOCC3)cc2c1=O,"inconclusive: 6.31 µM [inhibitor, single point]"
12,CC(C)OCCCNC(=O)c1cc2c(-c3ccc(Cl)cc3)nn(C)c2s1,inactive
13,O=C(Nc1ccc(C(F)(F)F)cc1)C1CCCN(c2cnccn2)C1 (centres undefined),inactive
14,COc1cccc(N2CCN(c3ccc4nnc(CCC(=O)Nc5ccccc5OC)n4n3)CC2)c1,"inconclusive: 50.1 µM [inhibitor, single point]"
15,Cc1cccc(-c2c3c(=O)n(C)c(=O)n(C)c3cn2-c2ccccc2O)c1,inactive
16,COc1cccc(NC(=S)/C(=C(\[O-])c2cc(C)n(-c3ccccc3F)c2C)[n+]2ccc(N(C)C)cc2)c1,"inconclusive: 39.8 µM [inhibitor, partial curve]"
17,COCCCNC(=O)CCCCn1c(=O)c2ccccc2n(CC(=O)Nc2ccc(C)cc2C)c1=O,inactive
18,COc1cccc(OC)c1C(=O)Nc1ccc(N2CCCC2)cc1,"inconclusive: 25.1 µM [inhibitor, partial curve]"
19,CN1CCN(C(=O)/C(=C/c2ccc(N(C)C)cc2)NC(=O)c2ccccc2)CC1,"inconclusive: 25.1 µM [inhibitor, single point]"
20,COc1ccccc1NC(=O)c1cc2c(=O)oc3ccc(C)cc3c2s1,inactive
21,CN(C)CCNC(=O)c1ccc(-n2c(-c3ccccc3)cc3c2CCCC3)cc1,inactive
22,Cc1onc(-c2ccc(Cl)cc2Cl)c1-c1csc(N/N=C/c2ccccc2)n1,"inconclusive: 28.2 µM [inhibitor, partial curve]"
